# Results published in ChEMBL document CHEMBL4888484, “Replenishing the malaria drug discovery pipeline: Screening and hit evaluation of the MMV Hit Generation Library 1 (HGL1) against asexual blood stage Plasmodium falciparum ,using a nano luciferase reporter read-out” (2022).
# Out of some 150,000 compounds screened, about 540 (0.36%) showed an effect of 50% or more. This is one part of the list.
# Test system: Plasmodium falciparum
# Assay: Primary screen in NF54 nanoGlo assay, in single point, at 2uM, 72h; a lower Z score goes with more inhibition
# Type: functional, Erythrocyte
# Conditions: timepoint 72 hour
SMILES,% Inhibition,Z score
Cc1oc(-c2ccccc2)nc1CNC(=O)Nc1ccccc1,2%,-0.31
Cc1ccc(CNC(=O)N2CCC[C@H](CN3CCC(C)CC3)CC2)cc1,0%,0
COc1ccc(C)cc1NC(=O)Cn1c(=O)n(C(C)C)c(=O)c2sc(N3CCCCC3)nc21,-22%,1.96
O=C1C2N=NN(Cc3nc(-c4ccc(Cl)cc4)no3)C2C(=O)N1c1ccc2c(c1)CCC2 (stereo not given),5%,-0.59
Cc1nc(C)c(Cc2ccc(Cl)cc2)c(N2CCN(S(=O)(=O)c3ccccc3)CC2)n1,-8%,0.93
O=C(NC1CCCCC1)C1=NN(c2ccccc2)C(=O)CC1,-4%,0.56
CC1(C)NC(=O)N(CCOC(=O)c2cc3c(cc2O)CCCC3)C1=O,2%,-0.17
CN(C(=O)Cc1cnn(C)c1)c1cc(Cl)cc(Cl)c1,15%,-1.83
COc1ccc(C(=O)c2oc3ccccc3c2NC(=O)c2csnn2)cc1Cl,-18%,1.56
CCn1nc(C)c(-c2cccc(C(=O)N3CCC[C@@]4(CCNC4)C3)c2)c1C,0%,-0.02
CCn1nnnc1-c1ccc(OC)c(S(=O)(=O)N[C@H]2CCS(=O)(=O)C2)c1,-3%,0.49
CCCNC(=O)C1(NC(=O)C[C@@](O)(c2ccccc2)C2CC2)CCCCC1,33%,-3.73
Cc1ccccc1N1CCN(c2ncccc2CNCc2ccc(CO)o2)CC1,0%,-0.03
COc1ncc(C(=O)N2CCCC2)cn1,-2%,0.22
Cc1ccc(C(=O)N2C[C@@H]3CN(C(=O)C4CCCC4)C[C@]3(C(=O)O)C2)s1,-10%,1.64
O=C([C@@H]1CCCN1C(=O)c1ccco1)N1CCCCCCC1,28%,-3.21
Cn1ccc(NC(=O)C(=O)N(Cc2ccccc2)C2CC2)n1,-3%,0.46
CCc1ccc(CN2C[C@H]3CCCc4nnc(-c5ccc(F)cc5)n4[C@H]3C2)cc1,-9%,1.04
CN(C)c1nc(N2CCC3(CCNC(=O)CC3)CC2)ncc1F,-3%,0.41
C[C@H](NC(=O)Cc1n[nH]c(=O)c2cc(-c3ccccc3)nn12)c1ccccc1,-6%,0.74
O=c1[nH]c2c(c(=O)[nH]1)CCN(Cc1ccccc1)C2,1%,-0.12
O=C(CNC(=O)c1cnccn1)NC1CCCCCCC1,8%,-1.41

SMILES,% Inhibition,Z score
Cc1ccc2c(c1)CCCN2C(=O)CN1C(=O)c2ccccc2C1=O,-21%,3.43
COc1nn(C)cc1C(=O)N1CC2CC1C(=O)O2 (stereo not given),-15%,2.77
O=C(CN1N=C(c2ccccc2F)c2cc(Cl)ccc2S1(=O)=O)Nc1ccc2c(c1)OCO2,-25%,2.31
O=C(CCc1ccncn1)N1CC=C(c2cccc3ccccc23)C1,-15%,1.81
CC1CC(C(=O)Nc2ccc([C@H]3C[C@@H]3C(=O)O)cc2)CCO1 (stereo not given in full),-10%,1.9
CC(C)CC(=O)Nc1nc(C(=O)NC(C)C)cs1,-2%,0.26
COc1nccnc1N[C@H]1C[C@@H](c2cc(N3CC[C@H](O)C3)ncn2)C1,-16%,1.96
NS(=O)(=O)CCNC(=O)NCC1(C2CC2)CCC1,-13%,1.83
C[C@H]1Cc2ccccc2N1C(=O)C1CCN(c2cc(-n3cncn3)ncn2)CC1,16%,-2.04
O=c1ccc(-c2cc(F)cc3cccnc23)c[nH]1,-14%,1.52
O=C(C1CCOCC1)N1CC(n2nccn2)C1,17%,-1.96
Cn1ncc(NC(=O)C(F)(F)C2(O)CCC2)c1C(F)(F)F,-6%,0.74
COc1cc(C)ccc1NC(=O)N(CCO)C(C)C,-5%,0.77
CCCCn1c(=O)[nH]c2c(C(=O)N3CCCC3)snc2c1=O,-12%,1.99
COc1ccc(NC(=O)Cn2cc(S(=O)(=O)c3ccc(C)cc3C)c(=O)c3ccc(C)nc32)cc1Cl,-14%,1.42
O=C(Nc1ccncc1)c1ccc2ccccc2c1,-38%,4.5
CCc1cc2c(Nc3ccc4c(c3)OCO4)ncnc2s1,-25%,2.27
Cc1nn(C)c(-n2cccn2)c1C(=O)O[C@H]1CCOC1,-13%,1.47
Cc1nc2c(c(NC(=O)C3CCCCC3)nn2C)c(C)c1Cl,24%,-2.67
CCOc1cc(-c2nccn2-c2ccc3cn[nH]c3c2)ccc1O,-7%,0.92
Cc1c(CNc2ccc(Br)cn2)cc(C#N)n1C,-12%,1.8
CNC(=O)c1ccc(CNC(=O)Nc2c(C)cnn2C2CCCC2)o1,17%,-1.65

SMILES,% Inhibition,Z score
Cc1cc(CN(C)Cc2cc3n(n2)CCCN(Cc2ncccc2F)C3)no1,-20%,3.93
Cc1ccc(NC(=O)C(=O)Nc2ccc3c(c2)OCO3)cc1N1CCCC1=O,-12%,1.85
COCCN(CCOc1ccccc1F)C(=O)c1cncc(O)n1,-14%,2.67
O=S(=O)(NCCc1csc(-n2cccn2)n1)C1CC1,3%,-0.41
COc1cc2cc(c1)C(=O)NCCCC(=O)N[C@H]1CN(C(=O)c3cc(C)ccc3Cl)CC[C@@H]1OCc1cccc(c1)O2,3%,-0.65
Cc1ccc(C(=O)NC2CCC(N3CCN4C(=O)CCC4C3)C2)cn1 (stereo not given),-14%,1.72
OCCn1nc(-c2ccncc2)nc1CCN1CCCCCCC1,-8%,1.31
O=C(CN1CCN(c2ncnc3sccc23)CC1)NCC1CCCCC1,-10%,1.37
Cc1c(-c2ccccc2)sc(NC(=O)C2CCN(S(C)(=O)=O)CC2)c1C(=O)N1CCCCC1,-3%,0.38
COc1ccc(CCC(=O)N2CCC[C@H]2c2cc(C(C)C)no2)cc1,-14%,1.92
COCc1nnc(CNC(=O)NC2(C)C(C)(C)C2(C)C)[nH]1,10%,-1.25
CC(C)Cn1ncnc1CN[C@@H](C)c1ccc(C2CC2)cc1,1%,-0.14
Clc1ccc(-c2cn3c(nc4ccccc43)c(-c3ccccc3)n2)cc1,-43%,5.09
N#CCOc1ccc(Br)cc1Br,-10%,1.96
Cc1noc(CCC(=O)N[C@H](C)c2ccc(Cl)cc2)n1,-8%,1.3
CCCN(C)c1nccn2c(=O)n(CC(=O)Nc3ccc(F)c(Cl)c3)nc12,-8%,0.79
C#CCNC(=O)[C@@H]1Cc2c[nH]c3cccc(c23)[C@H](CC(C)C)N1,1%,-0.22
CC(C)[C@H]1CN(C)CCN1Cc1ccc2cc(O)ccc2c1,-17%,2.23
Cc1ccc(-c2nn[nH]n2)cc1-n1cccn1,34%,-0.61
CNc1nc(NC[C@H]2CCCS2(=O)=O)ncc1Br,-6%,0.61
CC(C)N(Cc1nccn1C)C(=O)Nc1ccccc1OC[C@H]1CCCO1,4%,-0.7
O=C(NC[C@H]1CC[C@H](c2ccccc2)O1)c1cc(C(F)F)ncn1,4%,-0.62

SMILES,% Inhibition,Z score
Cc1nc(C(C)C)cc(N(C)C[C@H](C)N2CCOCC2)n1,6%,-0.55
COc1ccc(NC(=O)Nc2ccc(CCc3nc4ccccc4n3C)cc2)cc1,-2%,0.28
CN(C)C(=O)NCC(=O)N1CC[C@@]2(CCCN(C3CCCC3)C2=O)C1,-13%,2.55
CCN(C)C1(CNc2cnc3ccccc3n2)CCCC1,-13%,1.39
COc1ccccc1CNC(=O)[C@]1(C)Cn2nc(-c3ccccc3)cc2C(=O)N1CCc1ccco1,-10%,1.64
O=C(c1ccc[nH]1)N1CC[C@@]2(CCCN(C3CCCC3)C2=O)C1,-15%,1.38
O=C([C@H]1C[C@@H]1c1cccc(Cl)c1)N1CCC(O)(C(F)F)CC1,-10%,1.26
O=S(=O)(NCC1(O)CCCC1)c1ccc(Cl)s1,-18%,3.02
CCS(=O)(=O)Oc1ccccc1CN(CC1CC1)C(=O)C1CCC1,-13%,1.57
CC(C)(C)CC(=O)Nc1cccc(C#N)c1,11%,-1.51
CN1CCC(N2CCCC2CC(O)c2ccccc2)C1=O (stereo not given),8%,-0.85
Cc1noc(-c2c(C)[nH]c(C)c2S(=O)(=O)Nc2cccc(Cl)c2C)n1,-2%,0.43
O=C(CC1CCCO1)N1C[C@H](O)C[C@H]1c1n[nH]c(-c2ccccc2)n1 (stereo not given in full),-20%,3.87
CCS(=O)(=O)C1CN(C(=O)CCc2c[nH]c3ccc(C)cc23)C1,10%,-1.14
CNc1ncc(C(=O)NCc2noc(C(C)C)n2)cn1,-6%,0.89
Cc1nc(CCNC(=O)NCCN2CCCC[C@@H]2C)cs1,-4%,0.8
C=CCN(C)CCN(CC)S(=O)(=O)CCC1CCOCC1,-3%,0.57
O=C1NC[C@@]2(CCCN(C(=O)CCCn3cncn3)C2)O1,-2%,0.37
CCCc1cnc(C)nc1N1C[C@H](NC(=O)CNC)[C@@H](C(C)C)C1,7%,-1.01
